Reference: PubChem BioAssay AID651820 (National Center for Advancing Translational Sciences (NCATS), 2012)
The whole screen tested about 340,000 compounds, of which about 12,000 (3.5%) were called active. Inconclusive means that the source gave no clear call. Such entries were picked first, then a sample of the others. Calls come from the whole dose curve; as a rule, active = well fitted inhibition curve with a large enough effect; inconclusive = small, poorly fitted or top-dose-only effect, or another doubt; inactive = no such curve, though single readings can be large or run the other way. No potency is given beside an inconclusive call; the fits are too rough.

experiment: qHTS Assay for Inhibitors of Hepatitis C Virus (HCV); details: Huh7.5.1 HCVcc-Cre (HCVcc is cell-culture hepatitis C virus) infection, luciferase reporter, 44 h; series mostly up to 41.8 µM
Summary of the method: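 After 44 h co-culture of compound, cells and HCVcc-Cre (~0.5 moi), substrate is added for 15 min at room temperature and luciferase measured over 15 sec. Cells were seeded at 1,000/well and pre-cultured 4 h.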
Potency is the fitted concentration of half-maximal effect; tags give direction and shape of the fitted curve.

Compound | Potency
COc1ccc(-c2nc3cc(NC(=O)Cc4ccc(OC)c(OC)c4)ccc3o2)cc1 | active: 7.08 µM
CC(=O)Nc1ccc(OC(=O)c2cccs2)cc1 | inactive
Brc1ccc2[nH]cc(/C=N/N3CCCCC3)c2c1 | inconclusive [inhibitor, single point]
Cc1cccc(NC(=S)N(CCN2CCOCC2)Cc2ccccc2F)c1 | inactive
O=C(NNC(=S)NC(=O)c1ccc(Br)cc1)c1cccc([N+](=O)[O-])c1 | inactive
COc1ccc(/C=N\NC(=O)c2ccc(F)cc2)cc1COc1cc(F)ccc1[N+](=O)[O-] | active: 10 µM
CCn1ccnc1CN1CCCC(C(=O)c2ccc3c4c(cccc24)CC3)C1 (stereo not drawn) | inconclusive [inhibitor, partial curve]
Cc1cccc(N2CCN(C(=O)COc3cc(=O)n(C)c4ccccc34)CC2)c1C | inconclusive [inhibitor, partial curve]
COc1ccc(CCC(=O)Nc2ccc(S(=O)(=O)N3CCCC3)cc2)cc1OC | inconclusive [inhibitor, partial curve]
CN(C)CCCCOc1ccccc1-c1ccccc1 | inactive
CO/N=C/C(=N\Nc1ccccc1)C(=O)c1ccccc1 | inconclusive [inhibitor, full curve, poor fit]
CN(c1ccc(F)cc1)S(=O)(=O)c1ccc(Cl)c(C(=O)Nc2ccc3c(c2)CCC3)c1 | inconclusive [inhibitor, single point]
O=S(=O)(N(Cc1ccccc1)[C@H](CO)Cc1ccccc1)N(Cc1ccccc1)[C@H](CO)Cc1ccccc1 | inactive
COc1ccc(NS(=O)(=O)c2cc(Br)cc3c2N(C(C)=O)CC3)cc1 | inconclusive [inhibitor, partial curve]
O=C(CN1CCN(Cc2ccc(Cl)cc2)CC1)N/N=C/c1cccs1 | inconclusive [inhibitor, partial curve]
COC(=O)c1ccc(C2C(C(=O)c3cc4ccccc4o3)=C(O)C(=O)N2CCCN(C)C)cc1 (stereo not drawn) | inactive
COc1ccc(OC)c(Nc2nc(N)c([N+](=O)[O-])c(N3CCOCC3)n2)c1 | inconclusive [inhibitor, partial curve]
O=C(NCC(c1cccs1)N1CCOCC1)c1cccc([N+](=O)[O-])c1 (stereo not drawn) | inactive
COc1ccc(-c2csc3nc(C)n(-n4cccc4)c(=O)c23)cc1OC | inconclusive [inhibitor, partial curve]
O=C(NC1CCCCC1)C(c1ccccc1)N(C(=O)c1cccs1)c1ccc2c(c1)OCO2 (stereo not drawn) | inactive
CCc1cc2c(=O)c(-c3ccc4c(c3)OCO4)coc2c(CN(C)C)c1O | inactive
CCn1c(SC(C)C(=O)Nc2nccs2)nnc1-c1ccncc1 (stereo not drawn) | inactive
Cc1ccc(NC(=O)COc2ccc(/C=N/NC(=O)CSCc3ccccc3)cc2)cc1 | inconclusive [inhibitor, partial curve]

Compound | Potency
O=C(NCC(c1cccnc1)N1CCN(c2ccc(F)cc2)CC1)Oc1ccccc1 (stereo not drawn) | inactive
COc1ccc2nc3oc(C(=O)NCCCOC(C)C)cc3cc2c1 | inconclusive [inhibitor, single point]
Cc1ccc2c(Cl)c(C(=O)NC3CC3)sc2c1 | inconclusive [inhibitor, partial curve]
CCOC(=O)c1ccccc1NC(=O)c1ccc(NS(C)(=O)=O)cc1 | inconclusive [inhibitor, partial curve]
COCCCn1c(=S)[nH]c2sc3c(c2c1=O)CCCS3 | inactive
Cc1nnsc1C(=O)Nc1cc(Cl)ccc1Cl | inconclusive [inhibitor, single point]
O=C/C=C/c1c(-c2ccccc2)cc2oc3ccccc3cc1-2 | inconclusive [inhibitor, full curve]
CC(Sc1n[nH]c(N)n1)C(=O)Nc1ccccc1-c1ccccc1 (stereo not drawn) | inactive
CN(C)c1ccc(NC(=O)Cn2cc3c(n2)CCCC3)cc1 | inactive
Cc1nn(C(C)(C)C)c(OC(=O)c2cccs2)c1S(=O)(=O)c1ccccc1 | inconclusive [inhibitor, single point]
CCOc1ccccc1NC(=O)c1ccc2[nH]c(C)c(C)c2c1 | inconclusive [inhibitor, partial curve, poor fit]
O=[N+]([O-])c1ccc(NCCNc2ccc(Cl)nn2)cc1 | inconclusive [inhibitor, single point]
COc1ccc(OCCCC(=O)N2CCCc3ccccc32)cc1 | inconclusive [inhibitor, single point]
C=CCn1c(SCC(=O)c2ccc(CNC(C)=O)o2)nc2scc(C3CC3)c2c1=O | inconclusive [inhibitor, single point]
CCc1ccc2c(CN3CC=C(c4ccccc4)CC3)cc(=O)oc2c1 | inactive
Oc1ccccc1NCC(O)Cn1ccc2ccccc21 (stereo not drawn) | inconclusive [inhibitor, single point]
O=C(Nc1cccc2ccccc12)NC1CCCCC1 | inconclusive [inhibitor, single point]
O=C(c1cccs1)N1CCN(c2nc3c(F)cc(F)cc3s2)CC1 | inactive
Cc1nn(-c2ccccc2)c(C)c1/C=N/NC(=O)c1ccccc1O | inactive
COc1ccc(N2C(=S)NC(C)(C)CC2(C)c2ccc(OC(C)=O)cc2OC(C)=O)cc1 (stereo not drawn) | inconclusive [inhibitor, single point]
O=C(CSCc1ccc(F)cc1)NC1CCCC1 | inconclusive [inhibitor, full curve]
NS(=O)(=O)c1ccc(NNC(=O)c2ccccc2)cc1 | inactive
Cc1ccc(NC(=O)CCc2nc3ccccc3c(=O)[nH]2)cc1S(=O)(=O)N1CCOCC1 | inconclusive [inhibitor, single point]

Compound | Potency
COc1ccc2cc(C(=O)C3CCCN(C(=O)c4cc(=O)n(C)c(=O)n4C)C3)ccc2c1 (stereo not drawn) | inconclusive [inhibitor, single point]
O=C(CSc1nc2ccccc2[nH]1)Nc1ccc(N2CCOCC2)cc1 | inconclusive [inhibitor, full curve, poor fit]
CCc1ccc(NC(=O)C2CCN(C(=O)N3CCOc4ccccc43)CC2)cc1 | inconclusive [inhibitor, single point]
O=C(Nc1ccc(F)cc1F)N1CCCN(c2ccc([N+](=O)[O-])cn2)CC1 | inconclusive [inhibitor, partial curve]
CCOc1ccccc1NC(=O)Nc1cccc(C(C)=O)c1 | active: 7.08 µM
CC1=CS(=O)(=O)CC1Sc1nc2ccccc2[nH]1 (stereo not drawn) | inactive
CCOc1ccc(N=C2NC(=O)S/C2=C\c2ccc(O)cc2)cc1 | inconclusive [inhibitor, partial curve]
COc1ccc(Cl)cc1-c1nc(SCC(N)=O)n[nH]1 | inconclusive [inhibitor, partial curve]
COc1ccccc1Cn1c(SCC(N)=O)nc2c(oc3ccccc32)c1=O | inconclusive [inhibitor, single point]
C=C(NC(=O)C(=C)NC(=O)c1csc(C2=NC3c4csc(n4)C4NC(=O)c5csc(n5)C([C@@](C)(O)C(C)O)NC(=O)C5CSC(=N5)/C(=C\C)NC(=O)C(C(C)O)NC(=O)c5csc(n5)[C@]3(CC2)NC(=O)C(C)NC(=O)C(=C)NC(=O)C(C)NC(=O)C(C(C)CC)NC2C=Cc3c(C(C)O)cc(nc3C2O)C(=O)OC4C)n1)C(N)=O (stereo partly drawn) | inconclusive [inhibitor, single point]
O=c1cc(/C=C/c2ccccc2)oc2c1ccc1ccccc12 | inconclusive [inhibitor, partial curve]
O=c1[nH]c2ccc(NCc3ccccc3OCc3ccc(Cl)cc3)cc2[nH]1 | inconclusive [inhibitor, single point]
CCCC(=O)C1=C(O)C(C(=O)OC)C(C)(C)CC1=Nc1cccc2ccccc12 (stereo not drawn) | inconclusive [inhibitor, single point]
CCn1c(SCC(=O)OC2CCCCC2)nc2ccccc2c1=O | inconclusive [inhibitor, single point]
COc1ccc(NC(=O)[C@H](CCS(C)(=O)=O)N2Cc3ccccc3C2=O)c(OC)c1 | inactive
Cc1ncc(CC(=O)n2cc(C(=O)c3cc(F)ccc3O)cn2)s1 | inactive
CCC(Sc1nnnn1-c1ccccc1)C(=O)Nc1nc2ccccc2s1 (stereo not drawn) | inconclusive [inhibitor, single point]
CCn1c(SCC(=O)NC(C)(C)C)nnc1-c1ccccn1 | inconclusive [inhibitor, single point]
Cc1onc(-c2ccccc2)c1C(=O)N/N=C/c1cc2c(cc1Cl)OCO2 | inconclusive [inhibitor, single point]
COc1cccc(NC(=O)CSc2nc(O)c(C)c(=O)n2-c2ccc(C)cc2)c1 | inconclusive [inhibitor, partial curve, poor fit]
CCOC(=O)C1(CCOc2ccccc2)CCN(Cc2ccc(F)c(OC)c2)CC1 | inconclusive [inhibitor, single point]
CCOC(=O)c1c(C)n(CC(O)c2ccccc2)c2ccc(O)cc12 (stereo not drawn) | inconclusive [inhibitor, partial curve]
